The source gives no read counts; variants with many changes may rest on few reads.
B1: OR4K15 (parent)
chain: GUUAACGGUCAUAGGCCAUGGAAACUAGGAGCACCAUUUCGCUGCCAGUGAAGAAAUGAACAAAGAAAAUCUGGGCCAGGCAGGCAUCAAAAGAAAUAGUCUUGCGCUCAACCAGAAAGUCUGUAAUCAUUUUAAGGGUA

Variants of: B1
Assay: self-cleavage, relative activity (ratio to wild type); higher = more cleavage; in vitro, sequencing; the parent is a self-cleaving ribozyme

| Variant | self-cleavage |
| --- | --- |
| U2C A30G A52G U124C | 0.63 |
| A64G A68G A118G | 1.06 |
| A27G A60G A67G | 1.29 |
| U43C A51G A54G A66G | 1.2 |
| C6A A24G A56C A82G U100A | 0.05 |
| U12C U19C G44A U108C C113A | 0.01 |
| A56G U120C G138C | 1.22 |
| A11U A30C U72C | 0.2 |
| A59G A67G A86U A92G U100C | 1.83 |
| A59G G65A A111U | 0.05 |
| A30U A64G C88A U133A | 1.21 |
| U39C U108A A134G A135G G138U | 0 |
| U3C A60G A110G A114G C128A G138A A140G | 0.01 |
| U3C A11G G84A | 1.39 |
| U87C C109G A110G | 0 |
| G58A A59G U102A | 1.01 |
| C32U A89G U120C | 0.67 |
| A51U A64U A82G | 0.55 |
| A5G C32U U38A U87C U100C A111G | 0.04 |
| G1U A69U U102A | 1.91 |
| A5U C71U G136U | 0.85 |
| A33G U39C G75A A82G A96G | 0.04 |
| A27G A52G A55G A60G U127C A135G G138A | 0.47 |
| A5U A62G A90G U120C | 0.65 |

| Variant | self-cleavage |
| --- | --- |
| G44A A117G U132C | 2.04 |
| U19A U108C U124C | 0.01 |
| U49C A60G A64G A95G A116G | 0.21 |
| A5G U43A A82G | 0.88 |
| A5G A51G A54G A55G | 1.18 |
| A30G U39C A51G A63G U132C | 1.34 |
| C77A A78G U122C | 0.22 |
| U38A A60G U87A | 1.18 |
| A64G A67G C128A | 0.77 |
| U9A A59G A78G A111G | 0.03 |
| A54G U57C A63G | 0.36 |
| A62G A67G G74U | 0.21 |
| A60G A69G A129G | 0.8 |
| A22G U39C U43A | 1.59 |
| A24C A90G G104A | 0.01 |
| A51U A114U U127A | 0.03 |
| C35U A54G A69G A82G A94G A129U U131C | 0.34 |
| G7U A68G A89G A96G U120C U133C | 1.18 |
| U2C A22U A62U A86U | 1.62 |
| A51G U70C U139C | 1.41 |
| C35U A64G U87A | 0.7 |
| A18G A52G U102C | 0.63 |
| A55G A96G U108G A135U | 0.02 |
| A86G A116G U122C | 0.44 |

| Variant | self-cleavage |
| --- | --- |
| A18G U43A U127A | 1.51 |
| A55G A114U U131C | 0.09 |
| A18C A27U A47U U108C | 0.04 |
| A51U A110G A116G | 0.04 |
| A68G A90G A94G | 1.25 |
| A18C A56G A94U | 1.73 |
| A54G A78G U139A | 0.44 |
| U9C A33G A67G A111G A126G | 0 |
| A95U A98G A135U | 1.61 |
| U49A U87C G123U A125G | 0.69 |
| U49C G99A U108C | 0.01 |
| A33G A59U A64U | 0.71 |
| A54U U132C A135G | 2.05 |
| A55G A114U U127C | 0.05 |
| A51C A59G A82U | 0.12 |
| A11U A36G U38C A51G | 1 |
| G7A A60G A92G | 1.84 |
| A59C U103C U122C U132C | 0.36 |
| A24G C45A A56G A125G U131C | 0.24 |
| U9A A68G A69G U70C | 0.12 |
| A22U A47U A86G A94G A111G | 0.17 |
| A63U A86U U108C | 0.01 |
| A86G A91G A92G | 0.44 |
| C46A A117G G138A | 1.07 |

| Variant | self-cleavage |
| --- | --- |
| A18G A30G A47G U122C | 0.55 |
| U49C U102A U130C | 0.28 |
| U19C C71U U132C | 0.2 |
| A33G U122C A135G | 0.54 |
| A4G A63G U127C | 0.43 |
| U9A A22G A60U | 0.89 |
| U12C A69G C105U | 0.18 |
| A18U A89G A92U U131C | 1.31 |
| U9C A23G U122C | 0.47 |
| A18C U38C A52G A89U A110C U122A | 0.16 |
| A62G A86U U87C | 1.79 |
| A5G A56G U103A U124A | 0.4 |
| A36G A55G C107U | 0.03 |
| U70C A111G U139A | 0.03 |
| A23G A63C A94G | 1.87 |
| A54G A68G U103G U122A | 0.01 |
| A59G A67G A118U | 1.49 |
| A62C U87C A94G | 0.99 |
| G41U U87C A94G U102A U130C | 0.03 |
| A89G A114G A125G | 0.14 |
| A78U A82G A95G U139G | 0.3 |
| A18G A56G A78G A126G | 0.62 |
| A11U A52G A64G | 2.02 |
| A18G A55G A91G U102C A125U | 1.67 |

| Variant | self-cleavage |
| --- | --- |
| U38C U57C U124A | 1.25 |
| U19A U97A A116G A129G | 0.3 |
| A11G U39C A68G | 1.45 |
| A22G A54G C105U | 0.07 |
| A54U U103C U122C | 0.67 |
| A51G A96G U130A | 0.46 |
| A55G A56G U72A A95G U130C | 0.37 |
| A11C A33U A54U | 1.39 |
| A11U U72C U139A | 0.08 |
| U38A A67G A111G A118G | 0.1 |
| A4G A11C A18G A22U | 0.88 |
| U38A C76A A96G | 0.08 |
| A60G A82G A90C | 0.21 |
| A22G A24G U102C | 1.91 |
| A24G A69G A92G U103C U132C | 0.6 |
| A47U A66G A90G | 0.67 |
| A68G A96U A111G | 0.03 |
| A24G A62G U131A | 0.97 |
| G31A A55G U130C | 1.32 |
| U39C U108C A118C | 0.01 |
| A59G A63G U122C | 0.74 |
| U9C A24G A55G | 0.83 |
| C35A A90G U130C | 0.49 |
| A54G A111U A134G | 0.03 |

| Variant | self-cleavage |
| --- | --- |
| U3C A30G A67G U122C | 1.05 |
| U37C A82G A129G | 0.49 |
| C34U A54G A117G A140G | 2.81 |
| A66U A69C U70C A78G A118G | 0.13 |
| A5G A54G A98G | 1.18 |
| A68U C76G A110G | 0.04 |
| A5G A55G U57G | 0.94 |
| U19C A98U A125G | 1.09 |
| A22G A59G A110G | 0.1 |
| A52G G73A A95U | 0.2 |
| A30G A52G A60G A96G | 0.99 |
| U3A U103C A135U | 1.06 |
| A47G U72A G93A A96G | 0.1 |
| A51G A62G U103A | 0.79 |
| A22G G74U A92G U102A A134G | 0.04 |
| U57C A116G U127C | 0.16 |
| A22U A68G U108A A116G | 0.02 |
| A22U A36G A54G A64G A125G | 0.67 |
| U2C A13G U127C U130C | 0.61 |
| A22G A78U A95G U120A | 0.49 |
| U3G A82U U139C | 0.42 |
| A33G A89G A116G | 0.27 |
| A5U A68G A96U U108A A135G | 0.01 |
| A59G A67G U122C U127C | 0.76 |

| Variant | self-cleavage |
| --- | --- |
| A52U A56G A78G | 0.24 |
| A22G A24G A52C A78G | 0.33 |
| U43C A111G C121U | 0.01 |
| U9C A90G U122G | 0.53 |
| A5U U12A A67G | 1.35 |
| U39A A54G U57C U70C | 0.17 |
| A60G A63U A69G A78G A126G U127A | 0.13 |
| A55G A82C A90G U120C | 0.06 |
| A96G U100C A118G A129C | 1.88 |
| U26C C35A A54G A98U U130C U139C | 1.42 |
| A5G U19A U108C | 0.06 |
| U9C G31A G79A C105G U131G | 0.02 |
| A54G G80A A126G | 0.19 |
| A30G G44A A60G A111U | 0.1 |
| U39C A92G U131C | 1.27 |
| U2C G14C U38C A62G U70C G84C | 0.05 |
| A11G A82U C105U A111G U131C | 0 |
| A51G A78G A134U | 0.12 |
| A18C A52C A129G G136A | 0.72 |
| A33C U87C A118U U133C | 0.44 |
| A18G A23G U49G A68G A86G | 0.56 |
| G1A U39C U87A A116G | 0.68 |
| A69G A98G A114G | 0.14 |
